Test results: PubChem BioAssay AID651820 (National Center for Advancing Translational Sciences (NCATS), 2012)
The campaign covered roughly 340,000 compounds. About 12,000 (3.5%) were called active. This list was built around the results that the source calls inconclusive (neither active nor inactive); the mix of calls is not that of the screen. Calls come from the whole dose curve; as a rule, active = well fitted inhibition curve with a large enough effect; inconclusive = small, poorly fitted or top-dose-only effect, or another doubt; inactive = no such curve, though single readings can be large or run the other way. Potencies of inconclusive entries are left out as doubtful fits.

assay: qHTS Assay for Inhibitors of Hepatitis C Virus (HCV); settings: Huh7.5.1 HCVcc-Cre (HCVcc is cell-culture hepatitis C virus) infection, luciferase reporter, 44 h; activity change, negative = inhibition: at 41.8 µM (top of the series)
Summary of the method: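 HCVcc-Cre virus at an moi near 0.5 was added right after compound to cells cultured 4 h from seeding (1,000 cells/well). Luciferase activity was determined 44 h later, 15 min after substrate addition at RT.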
% is set by controls: 0 for no effect and ±100 for the full control effect; potency is the fitted concentration of half-maximal effect; tags give direction and shape of the fitted curve.

| Compound | Potency | activity change, negative = inhibition |
| --- | --- | --- |
| CCOc1ccc2nc(NCCNS(=O)(=O)c3ccccc3)c(C#N)cc2c1 | inconclusive [inhibitor, partial curve] | – |
| O=c1cc2oc3cc(O)c(O)cc3c(-c3ccccc3O)c-2cc1O | inactive | – |
| CCc1cccc(NC(=O)NC(=O)Cn2nnc(C(=O)OC)c2C(=O)OC)c1 | inactive | – |
| COc1ccc(NC(=S)N/N=C/c2cccn2Cc2ccc(F)cc2Cl)cc1 | inconclusive [inhibitor, single point] | – |
| CC(C)(C)NC(=O)CN(C(=O)CS(=O)CC(=O)Nc1ccc(F)cc1)c1cccc(F)c1 (stereo not drawn) | inactive | – |
| CCOc1ccc(NC(=O)C(=O)NCCN2CCN(C(=O)c3ccc(C)cc3)CC2)cc1 | inconclusive [inhibitor, single point] | – |
| COc1cc(C(=O)NCC(c2ccccc2)N(C)C)ccc1OCc1c(C)noc1C (stereo not drawn) | inconclusive [inhibitor, full curve] | – |
| Nc1cc2c(cc1Cl)-c1ccc(Cl)cc1C2 | inconclusive [inhibitor, partial curve] | – |
| C=CCN(c1ccccc1)S(=O)(=O)c1cccc(C(=O)NCC(c2ccc(F)cc2)N2CCOCC2)c1 (stereo not drawn) | inconclusive [inhibitor, single point] | – |
| COc1ccccc1N(CC(=O)NC1CCCCC1)C(=O)Cn1nnc(-c2ccc(C)o2)n1 | inconclusive [inhibitor, single point] | – |
| CCOc1ccc(N(CC(=O)N2CCN(c3ccc(F)cc3)CC2)S(=O)(=O)c2c(C)noc2C)cc1 | inconclusive [inhibitor, single point] | – |
| CCOC(=O)c1c(-c2cccs2)csc1NC(=O)CC(C)C | – | inconclusive: -32.4% [inhibitor] |
| CC(C)c1ccccc1OCC(=O)NCC(c1cccs1)N1CCOCC1 (stereo not drawn) | inconclusive [inhibitor, single point] | – |
| CN(C)S(=O)(=O)c1ccc(C(=O)NCCSc2ccc(Br)cc2)cc1 | active: 22.4 µM | – |
| Cc1nn(CC(=O)Nc2sc3c(c2C#N)CCC(C(C)(C)C)C3)c(C)c1[N+](=O)[O-] (stereo not drawn) | inconclusive [inhibitor, single point] | – |
| COc1cc(CNCCc2ccccc2)cc(Cl)c1OCc1ccccc1 | inconclusive [inhibitor, single point] | – |
| CCOc1ccc(C(O)(CCC(C)C)C(CN2CCOCC2)c2ccccc2)cc1 (stereo not drawn) | inconclusive [inhibitor, single point] | – |
| O=C(Nc1nnc(SCc2ccccc2)s1)C1=COCCO1 | inconclusive [inhibitor, single point] | – |
| CN(C)CCNc1ncnc2c1sc1nc(-c3ccccc3)c3c(c12)CCCC3 | inconclusive [inhibitor, full curve] | – |
| COc1cccc(C2(CSc3nnc(-c4cc(OC)c(OC)c(OC)c4)o3)OCCO2)c1 | inconclusive [inhibitor, single point] | – |
| Cc1ccccc1OCCCSc1nc2ccccc2[nH]1 | inconclusive [inhibitor, single point] | – |
| O=C1N[C@H](Cc2ccccc2)COC(=O)[C@@H](Cc2ccc(F)cc2)C/C=C\C[C@H]1CC(=O)N(CCO)Cc1ccccc1 | inconclusive [inhibitor, partial curve] | – |

| Compound | Potency | activity change, negative = inhibition |
| --- | --- | --- |
| Nc1nc(SCC(=O)N2N=C(c3ccc(Cl)cc3)CC2c2ccco2)n[nH]1 (stereo not drawn) | inactive | – |
| CC(C)c1ccc(NC(=S)NCCc2c[nH]c3ccccc23)cc1 | inconclusive [inhibitor, single point] | – |
| CC(Sc1nnc(NCc2ccccc2)s1)C(=O)Nc1ccc2c(c1)C(=O)c1ccccc1C2=O (stereo not drawn) | inconclusive [inhibitor, partial curve] | – |
| Nc1ccccc1C(=O)c1ccccc1 | inconclusive [inhibitor, single point] | – |
| COCCN=c1scc(-c2ccccc2)n1/N=C/c1c[nH]c2ccccc12 | inconclusive [inhibitor, partial curve] | – |
| C=CCN1C(=O)CSc2ccc(C(=O)NCc3cccs3)cc21 | inactive | – |
| Cc1ccc(-n2c(SCc3cn4ccsc4n3)nc3ccccc3c2=O)cc1 | active: 10 µM | – |
| CCOC(=O)N1CCN(C(=O)CNS(=O)(=O)c2c(C)cc(C)cc2C)CC1 | inactive | – |
| O=C(COc1ccc([N+](=O)[O-])cc1)N1CCN(c2nnc(-c3ccccc3)c3ccccc23)CC1 | active: 12.6 µM | – |
| Cc1nnsc1Sc1ccccc1 | inactive | – |
| Cc1cc2ccccc2nc1SCC(=O)Nc1nc(-c2ccccc2)cs1 | inconclusive [inhibitor, single point] | – |
| Cc1cccc(C(=O)Nc2sc(C)c(-c3ccccc3)c2C#N)c1 | inconclusive [inhibitor, partial curve] | – |
| CC(C)n1ncc2c(C(=O)N3CCN(Cc4ccc(Cl)s4)CC3)cc(C3CC3)nc21 | inconclusive [inhibitor, partial curve] | – |
| COCc1nc(-c2ccc(-c3ccccc3)nc2OC)no1 | active: 14.1 µM | – |
| Cc1c([N+](=O)[O-])cc(C(=O)N2CCOCC2)cc1[N+](=O)[O-] | inactive | – |
| CC(C)(C)OC(=O)N(Cc1ccccc1)Cc1ccccc1OCc1ccc(NC(=O)C2CCC2)cc1 | inconclusive [inhibitor, single point] | – |
| Cc1oc(-c2ccccc2F)nc1CS(=O)(=O)CC(=O)NC(C)CCc1ccccc1 (stereo not drawn) | inconclusive [inhibitor, partial curve] | – |
| O=[N+]([O-])c1cc(-c2cnc3ccccc3n2)ccc1Oc1ccc(Cl)cc1 | inconclusive [inhibitor, single point] | – |
| CC1CN(S(=O)(=O)c2cccc(C(=O)Nc3ccc4c(c3)CCC4)c2)CC(C)O1 (stereo not drawn) | inconclusive [inhibitor, partial curve] | – |
| CC(=O)c1c(C)[nH]c(C(=O)CSc2nc3ccccc3c(=O)n2CCCN2CCOCC2)c1C | inactive | – |
| Cc1cc(NC(=O)c2ccco2)ccc1NC(=O)Cc1cccs1 | inactive | – |
